# Laboratory results: PubChem BioAssay AID1240 (Sanford-Burnham Center for Chemical Genomics, 2008)
# Screen size: about 50,000 compounds; about 800 (1.6%) showed an effect of 50% or more. This is one part of the list.
# Molecular target: Bcl-2-like protein 10 (Homo sapiens) (UniProt Q9HD36)
# Experiment: TR3 peptide-Bcl-B binding displacers, biochemical primary FP assay, phenotype converters (AID 1240);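 note: 0% = Bcl-B with tracer peptide and DMSO and 100% = tracer peptide lacking Bcl-B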
# Conditions: GST-Bcl-B / FITC-TR3 peptide fluorescence polarization; stronger effect = higher value; compound at 3.75 mg/L
# Chain of UniProt Q9HD36 (Q9HD36 whole entry, looked up): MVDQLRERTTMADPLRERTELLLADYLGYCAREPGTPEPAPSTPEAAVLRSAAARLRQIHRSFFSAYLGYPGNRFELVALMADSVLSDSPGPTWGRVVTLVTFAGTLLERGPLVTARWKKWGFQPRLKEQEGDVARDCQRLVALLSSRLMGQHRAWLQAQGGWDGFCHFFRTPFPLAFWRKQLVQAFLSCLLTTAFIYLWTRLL
row,SMILES,displacement [%]
1,CCC/C(O)=C1\C(=O)CC(C)(C)CC1=Nc1ccc(C)c(C)c1,2.6
2,COc1ccc(-c2nc3cc(NC(=O)c4ccc([N+](=O)[O-])cc4)ccc3o2)cc1Cl,24.5
3,COc1cc(/C=C2\SC(N)=NC2=O)ccc1OCc1cccc2ccccc12,48.9
4,Cc1ccc(C2=CC(=O)N(c3cccc(Br)c3)C2=O)cc1,-5.9
5,Cc1cccc(N2C(=O)NC(=O)/C(=C\c3ccc(Oc4ccc([N+](=O)[O-])cn4)cc3)C2=O)c1,1.4
6,Cc1cc(C)c(NC(=O)c2c(-c3ccccc3)noc2C)c(C)c1,-3.9
7,CC(C)C(C(=O)O)N1C(=O)/C(=C/c2ccc3c(c2)OCO3)SC1=S (stereo not given),0.5
8,NC1=NC(=O)C(CC(=O)Nc2ccccc2F)S1 (stereo not given),-6.5
9,Cc1ccc2nc(-c3cc(NC(=S)NC(=O)c4ccco4)ccc3Cl)oc2c1,28.2
10,COc1ccc2c(c1)nc(SCc1ccc(Cl)cc1)n2C,1.6
11,COc1cc(/C=C(\C#N)c2nc3ccccc3[nH]2)ccc1OCC(=O)O,43.5
12,O=C(O)CN1C(=O)/C(=C/C=C/c2ccccc2[N+](=O)[O-])SC1=S,12.3
13,Cc1cc(C)cc(N2C(=O)NC(=O)/C(=C\c3ccc(OC(C)C)cc3)C2=O)c1,-11.2
14,COc1ccc(N(CC(=O)N(C)Cc2ccccc2)S(C)(=O)=O)c(OC)c1,6.6
15,Nc1nc(-c2ccccc2)c(I)c(=O)[nH]1,-5.4
16,COc1ccc2nc(Nc3nc4ccccc4c(=O)[nH]3)nc(C)c2c1,3.1
17,O=C(CN(c1cccc([N+](=O)[O-])c1)S(=O)(=O)c1ccccc1)NCCSCc1ccccc1Cl,-12
18,Cc1ccc(C(=O)Oc2ccc(C(=S)N3CCOCC3)cc2)cc1,10.9
19,COC(=O)c1ccc(/C=C2\N=C(c3ccc(C(C)(C)C)cc3)OC2=O)cc1,11.1
20,Oc1cnc2ccccc2c1CN1CCOCC1,10.1
21,O=C(Nc1ccc(I)cc1Cl)c1ccc([N+](=O)[O-])cc1Cl,-1.3
22,COCCNc1nc(-c2ccc(Cl)cc2)nc2ccccc12,-11.6

row,SMILES,displacement [%]
1,CCOC(=O)c1ccc(NC(=O)Cc2ccc(Cl)cc2)cc1,-8.1
2,O=c1[nH]cnc2c1C(c1ccc(Cl)cc1)c1c(nc[nH]c1=O)O2,-1.7
3,CC1=C(C(=O)OC(C)C)C(c2cccc(Br)c2)NC(=O)N1 (stereo not given),0.4
4,CCOC(=O)c1c(-c2ccccc2)oc2cc(Br)c(OS(C)(=O)=O)cc12,8.6
5,O=C(COc1ccc2ccccc2c1)N1CCc2ccccc21,-1.3
6,COc1ccc(C2=NC(=Cc3cccc4ccccc34)C(=O)O2)cc1,108
7,COc1ccc(OC)c(NC(=S)NC(NC(=O)c2ccc(Br)cc2)C(Cl)(Cl)Cl)c1 (stereo not given),-7
8,Cn1c(/C=C/c2ccc3c(c2)OCO3)nc2ccccc2c1=O,1.3
9,CC(C)CN1C(=O)/C(=C/c2cccc([N+](=O)[O-])c2)SC1=S,10.8
10,Cc1cccc(-c2cc(NC(=O)c3ccc(F)cc3)n[nH]2)c1,12.6
11,CCc1cc(=O)oc2cc(OC(C)=O)ccc12,12.3
12,CCOc1cc(C(=O)Nc2ccc3c(c2)OCO3)cc(OCC)c1OCC,-5.5
13,COc1cccc(C(=O)Oc2ccc3c(C)cc(=O)oc3c2C(C)=O)c1,-1.9
14,O=C(Nc1ccc(Cl)c(C(F)(F)F)c1)c1cccc(I)c1,8.8
15,Cc1sc(NC(=O)Nc2ccccc2)nc1C12CC3CC(CC(C3)C1)C2,3
16,CCSc1nc2c(C)c(O)c(C)cc2[nH]1,10.3
17,Cc1cccc(N2C(=O)CC(N3CCN(c4ccc(F)cc4)CC3)C2=O)c1 (stereo not given),-0.1
18,C=C(Br)Cn1c(C)nc2ccccc21,14.6
19,Cc1sc2ncnc(N/N=C/c3ccc(Cl)cc3Cl)c2c1C,3.8
20,O=C(NCCO)C(=O)NC1CCCCC1,7.6
21,O=C1S/C(=C/c2ccc(-c3ccc(F)cc3)o2)C(=O)N1c1ccccc1,12.2
22,Cc1c(NC(=O)c2cccs2)cccc1C(=O)O,0.8

row,SMILES,displacement [%]
1,COC(=O)C1=C(C)N(c2cccc(OC)c2)C(=O)/C1=C\c1ccc(O)cc1,5.3
2,CC(=O)c1cccc(NC(=O)/C(=C\c2cccs2)NC(=O)c2ccccc2)c1,7
3,CCc1c(C)nc(Nc2nc(C)c3ccccc3n2)[nH]c1=O,-10.2
4,O=C(O)CCCC(=O)N1CCN(C(c2ccccc2)c2ccccc2)CC1,-5.1
5,Cc1cc(/C=C2\C(=O)NC(=S)N(c3cccc(Cl)c3Cl)C2=O)c(C)n1C,0.8
6,Cc1ccc2nsnc2c1NC(=O)COc1ccc(Cl)cc1Cl,-0.9
7,COc1ccc(NC(=O)c2cccc([N+](=O)[O-])c2C)cc1OC,1.9
8,COc1ccc(Br)cc1CN1CCN(S(=O)(=O)c2ccccc2)CC1,11.2
9,O=C1C=C(Nc2cccc(O)c2)CC(c2ccco2)C1 (stereo not given),14.1
10,Cc1ccc(-c2nc(Nc3ccccc3)s[n+]2CS(=O)(=O)c2ccccc2)cc1,14
11,COc1cc(-c2ccc(NC(=O)c3cccc(F)c3)c(OC)c2)ccc1NC(=O)c1cccc(F)c1,37
12,O=C1NC(=O)/C(=C/c2ccc(OC(=O)c3ccccc3I)cc2)S1,-1
13,CCn1c2ccccc2c2ccc(/C=N/NC(=O)c3ccc(O)cc3O)cc21,-43.4
14,CCOc1ccc(N2C(=O)NC(=O)/C(=C\c3ccc(Br)o3)C2=O)cc1,0.6
15,CCn1c2ccccc2c2nnc(-n3nc(C)c(Cc4ccccc4)c3C)nc21,-3.5
16,O=C(Nc1ccc(Br)cc1)/C(=C/c1cccc([N+](=O)[O-])c1)NC(=O)c1cccs1,-4.2
17,N/C(Cc1ccc(Cl)cc1Cl)=N\OC(=O)COc1ccccc1,1.1
18,CS(=O)(=O)N1CCN(C(=O)COc2ccccc2)CC1,13.6
19,O=C(N/C(=C/c1ccc(Cl)cc1)c1nc2ccccc2[nH]1)c1ccco1,-4.9
20,NS(=O)(=O)c1ccc(NC(=O)Cc2cccc3ccccc23)cc1,3.2
21,COc1ccc(NC(=O)c2ccco2)cc1,3.1
22,COc1ccc(C(=O)Nc2ccccc2)cc1S(=O)(=O)NC1CCCCC1,-8.2

row,SMILES,displacement [%]
1,COc1ccc(CCN2C(=O)CC(C(C)c3ccccc3)C2=O)cc1OC (stereo not given),13.1
2,Cc1nc2c(=O)[nH]c3ccccc3c2o1,-5
3,CCN(CC)C(=S)SCC(=O)Nc1cc(C)ccc1C,11.8
4,COc1ccc(N(CC(=O)N2CCCC2)S(=O)(=O)c2ccccc2[N+](=O)[O-])c(OC)c1,3.9
5,O=C(O)CSc1nc2ccccc2c(=O)[nH]1,2.9
6,Cc1cccc(NC(=O)CSc2ncn[nH]2)c1,9.7
7,O=C(Nc1ccccc1-c1ccccc1)c1cccc(I)c1,7.3
8,C=CCc1ccccc1OCCOc1cccc(/C=C2/SC(=S)N(C)C2=O)c1,3.5
9,O=C(NN1C(=O)/C(=C/c2ccc(F)cc2)SC1=S)c1ccncc1,-33.7
10,Cc1ccc(OCC(=O)Nc2ccc(C)c(Cl)c2)c(C)c1,3.2
11,COC(=O)c1ccc(NC(=O)C2(C)CC3c4ccccc4C2c2ccccc23)cc1 (stereo not given),6.2
12,CCOc1ccc(N2C(=O)S/C(=C\C=C\c3ccccc3)C2=O)cc1,2.6
13,CC1=CCC2C(=O)N(c3cccc([N+](=O)[O-])c3)C(=O)C2C1 (stereo not given),25.7
14,C/C(=N/OCO/N=C(/C)c1ccc(F)cc1)c1ccc(F)cc1,15.9
15,CCOC(=O)c1ccccc1NC(=O)c1cccc(N(C)C)c1,2.6
16,CCCCOc1ccc(OCCNS(=O)(=O)N(C)C)cc1,-14.3
17,O=C(CSc1nc2ccc([N+](=O)[O-])cc2s1)NCCc1ccccc1,7.9
18,Cc1ccnc(NS(=O)(=O)c2ccccc2)c1,-12.2
19,CCOc1cc(C2NC(=O)N(C)C(C)=C2C(=O)OCCc2ccccc2)ccc1O (stereo not given),11.8
20,O=C(CCNc1cccc(F)c1)c1cccc([N+](=O)[O-])c1,-13
21,COc1cc(OC)cc(C(=O)Nc2cc(Cl)ccc2C)c1,-9
22,CC(C)(C)c1ccc(OCC(=O)N/N=C/c2ccc(O)c([N+](=O)[O-])c2)cc1,6.3

row,SMILES,displacement [%]
1,C=CCN1C(=O)/C(=C\c2ccccc2OCc2ccc(Cl)cc2)SC1=S,23.3
2,Cc1ccc(Nc2ccc([N+](=O)[O-])ccc2=O)cc1,136
3,CCOc1ccc2nc(SCc3ccc(Cl)cc3)nc(C)c2c1,8.6
4,Cc1nn(Cc2cccc(Cl)c2)c(N)c1-c1ccccc1,-9
5,Cc1ccc(-c2cc(N)n(Cc3ccc(Cl)cc3)n2)cc1,9.1
6,CN(C)c1ccc(NS(=O)(=O)c2ccc(N3C(=O)CCC3=O)cc2)cc1,19.2
7,CCOC(=O)c1ccccc1NC(=O)c1ccc(CN2CCc3ccccc3C2)cc1,5.9
8,COc1ccc(C(=O)N2CCN(Cc3cccc(Oc4ccccc4)c3)CC2)cc1OC,6.4
9,CCCOC(=O)c1cccc(NC(=O)COc2ccccc2Cl)c1,-5.3
10,CCN(CC)CCCCCCOc1ccc(F)cc1,8.4
11,Cc1ccc(N2C(=O)CC(N3CCN(c4ccccn4)CC3)C2=O)cc1 (stereo not given),6.7
12,O=C(CCC1CCCC1)Nc1cc(Cl)ccc1Cl,4.2
13,COc1ccc(C2CC(C(F)(F)F)n3ncc(C(=O)O)c3N2)cc1OC (stereo not given),8.8
14,CC(C)CNc1nc(-c2ccccc2)nc2ccccc12,3.3
15,Cc1ccc(S(=O)(=O)Nc2c(C)cc(C)cc2C)c(C)c1,12.7
16,Cc1ccc(N2C(=O)CC(N3CCC(O)(c4ccc(Br)cc4)CC3)C2=O)cc1 (stereo not given),6.2
17,COc1ccc(Cl)cc1C(=O)Nc1ccc(NC(=O)c2ccc(C(C)(C)C)cc2)cc1,16.7
18,CC1CCN(C(=O)c2ccc(Cl)cc2)CC1,-13.3
19,Cc1c(NC(=O)c2ccc(-c3ccccc3[N+](=O)[O-])o2)cccc1-c1nc2ncccc2o1,14.4
20,COc1ccc(/C=C2/SC(N)=NC2=O)c(OC)c1,-3.2
21,CC1CN(C(=O)c2ccc([N+](=O)[O-])cc2)CC(C)O1 (stereo not given),15
22,CCOc1ccc(/C=C2\C(=O)NC(=S)N(c3ccc(CC)cc3)C2=O)cc1OC,-8
